Reference: patent US5648379A (priority 1990, dated 1997)

Columns and labels:
[1] = target: V. cholerae neuraminidase (Vibrio cholerae serotype O1, UniProt P0C6E9); assay: biochemical
parainfluenza viruses = conditions: in vitro; Palese et al. 1974; cited from earlier work
influenza = conditions: cited from earlier work

Structure (SMILES): CC(=O)N[C@H]1[C@H]([C@H](O)[C@H](O)CO)OC(C(=O)O)=C[C@@H]1N=C(N)N [Compound 7, Ammonium 5-Acetamido-4-guanidino-2,3,4,5-tetradeoxy-D-glycero-D-galacto-non-2-enopyranosonate]
- Ki [1]: 450 µM

Structure (SMILES): O=C(O)C1=C[C@H](O)[C@@H](NC(=O)C(F)(F)F)[C@H]([C@H](O)[C@H](O)CO)O1 [FANA, 2-deoxy-2,3-dehydro-N-trifluoroacetyl-neuraminic acid]
- inhibition of multi-cycle replication of parainfluenza viruses (parainfluenza viruses): inhibits multi-cycle replication
- inhibition of multi-cycle replication of influenza virus (influenza): inhibits multi-cycle replication
